This note sets out measurements from PubChem BioAssay (NCI).

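These data come from cells grown in 96-well plates and exposed to compound for 48 hours at five concentrations. At the GI50, growth is halved. TGI marks complete inhibition of growth.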 Where only a bound is given, the exact number is not on record here.

The test system of this experiment is NCI-H322M lung. Description: NCI-60 cell line screen, 48 h.
`N/C(=C\c1ccc(/C=C(\NC(=O)c2ccccc2)c2nc3c([nH]2)C(=O)c2ccccc2C3=O)cc1)c1nc2c([nH]1)C(=O)c1ccccc1C2=O` had a TGI of 33.1 µM.
In the case of `CC1=C(C(=O)O)N2C(=O)[C@@H](NC(=O)C(c3ccccc3)N3CSC(=S)N(C(C)C)C3)C2SC1` (stereo partly drawn), the TGI is greater than 100 µM.
As to `N#C[S-].[Ce+3].c1ccc(-c2ccccn2)nc1.c1ccc(-c2ccccn2)nc1.c1ccc(-c2ccccn2)nc1`, the GI50 is 13.6 µM and the TGI was greater than 100 µM.
`CCCCN(C)CC(C(C)=O)C(c1ccccc1)c1c(O)c2ccccc2oc1=O` (stereo not drawn) yielded a TGI greater than 100 µM.
Regarding `COc1cc(/C=C2\C(=O)Nc3ccc(Cl)cc32)cc(OC)c1OC`, the GI50 is 84.7 µM and the TGI was greater than 100 µM.
As for `O=C1NN(C(=O)c2ccccc2)C(c2ccc(Cl)c(Cl)c2)=C/C1=C\c1ccccc1[N+](=O)[O-]`, the GI50 is 2.23 µM and the TGI was greater than 6.75 µM.
For the compound `CC(C)(C)c1ccc(NS(=O)(=O)c2ccc(N)cc2)cc1`, the TGI was greater than 100 µM.
In turn, `Cc1c(C)c(S(=O)(=O)N(CCCN)OCCCN)c(C)c2c1OC(C)(C)CC2` yielded a TGI of 30.7 µM.
The compound `CCOC(=O)NC(=O)c1cn(C2CCCCC2)c(=O)n(C)c1=O` gave a TGI greater than 100 µM.
Regarding `C/C(CC(O)(C(F)(F)F)C(F)(F)F)=N\NC(N)=S`, the TGI is greater than 10 µM.
As to `CCCCNC(=O)Oc1ccc(/C(=C(\C)c2ccc(OC)cc2)c2ccc(OCCN3CCCCC3)cc2)cc1`, the GI50 was 3.77 µM and the TGI turned out to be 16 µM.
`Cc1cc2c3c(nc2c2cc[nH]c(C)c12)CCCC3` gave a TGI of 12.7 µM.
As to `CC(C)(C)OC(=O)NC(Cc1ccccc1)C(=S)N1CCCC1` (stereo not drawn), the TGI is greater than 100 µM.
With `COc1cc(/C=C/C(=O)c2ccccc2O)ccc1OCCCOc1cc2c(cc1OC)C(=O)N1CCC[C@H]1C=N2`, the GI50 is 0.283 µM and the TGI is 1.4 µM.
On the same counts, the results for `OCC#Cc1ccccc1C#Cc1ccc(C#Cc2ccccc2C#CCO)cc1` are greater than 100 µM and greater than 100 µM.
In the case of `O=[N+]([O-])c1cc(I)cc(/C=N/NS(=O)(=O)c2ccc(F)cc2)c1O`, the TGI was determined as 65.6 µM.
Regarding `CC1CCCc2c1n[nH]c2CC1CC(=O)NC(=O)C1` (stereo not drawn), the TGI was greater than 100 µM.
`NCCCNCc1c2ccccc2c(CNCCCN)c2ccccc12` yielded a TGI of 65.8 µM.
`COc1nc2ccc(Cl)c(C(O)c3ccccc3)c2nc1OC` (stereo not drawn): the TGI is greater than 100 µM.
For the compound `COc1cc(/C=C2\N=C(c3ccccc3)N(c3nc4ccccc4s3)C2=O)cc(OC)c1OC`, the TGI is greater than 100 µM.
Compound `CSc1nc2c(nc(N)n2C2OC(CO)C(O)C(O)C2O)c(=O)[nH]1` (stereo not drawn) showed a TGI greater than 100 µM.
The compound `CC(C)(C)OC(=O)NCC(c1c[nH]c2cc(Br)ccc12)c1c[nH]c2cc(Br)ccc12` yielded a TGI of 34.1 µM.
In the case of `O=C(Nc1ccc(Cl)cc1)c1cc(NCc2cc(O)ccc2O)ccc1O`, the GI50 is 16.1 µM and the TGI came to 57 µM.
Consider `COC(=O)c1ccc(NCC2=CC(=O)C=CC2=O)cc1O`, for which the TGI is 43 µM.
In turn, `COc1ccccc1N1C(=O)CSC1c1cccc(Oc2ccccc2)c1` (stereo not drawn) had a TGI of 48.1 µM.
In the case of `Cn1c2ccccc2c2c3c(c4c5ccccc5n(C)c4c21)C(=O)N(Cc1ccccc1)C3=O`, the TGI was greater than 100 µM.
Regarding `O=C(N/N=C/c1ccc([N+](=O)[O-])cc1)c1ccccc1Nc1ccnc(C(F)(F)F)c1`, the GI50 is 10.7 µM and the TGI worked out at 36.9 µM.
The compound `NS(=O)(=O)c1ccc(N=Nc2ccc(O)cc2)cc1` registered a TGI greater than 100 µM.
For the compound `CCCC[n+]1ccn(-c2nc3ccccc3n2C)c1`, the TGI was greater than 100 µM.
On to `FC(F)(F)c1cccc(Oc2ccc(Nc3ncnc4ccc(OCCCN5CCOCC5)cc34)cc2Cl)c1`, for which the GI50 is 1.7 µM and the TGI came out at 7.13 µM.
The compound `Cc1ccc(N2C=Nn3c(nc4sc5c(c4c3=O)CCCC5)C2)cc1` registered a TGI greater than 100 µM.
In turn, `C=CC(=C)CCC(Br)C(C)(C)Br` (stereo not drawn) came in with a TGI greater than 100 µM.
With `C#Cc1cccc(Nc2nc(C)nc3cc(NC(=O)CCl)ccc23)c1`, the GI50 is 4.14 µM and the TGI was found to be 7.54 µM.
On to `CC1=NC(C)=C(/C(C)=N/NC(=O)c2ccccc2O)C(C)/C1=C(/C)NNC(=O)c1ccccc1O` (stereo not drawn), for which the TGI was greater than 100 µM.
`C=C1C2CC(OC(C)=O)C3(C)C(c4ccoc4)OC(=O)[C@@H](O)[C@]13OC1C[C@H](OC(C)=O)C(C)(C)[C@H](C(O)C(=O)OC)[C@]12C` (stereo partly drawn) yielded a TGI greater than 100 µM.
Consider `COc1ccc2c(c1)C(=O)/C(=C/c1ccc(O)cc1)O2`, for which the GI50 was 72.9 µM and the TGI is greater than 100 µM.
As for `COC(=O)Cc1cccc2c(=O)c(S(=O)(=O)NC(=O)Nc3ccc(Cl)cc3)c(-c3ccccc3)oc12`, the TGI was greater than 100 µM.
Regarding `CCOC(=O)c1ccc(Nc2nc3ccccc3n3cccc23)cc1`, the TGI is greater than 100 µM.
For the compound `NC(CCl)=NCC12CC3CC(CC(C3)C1)C2`, the GI50 was 3.57 µM and the TGI is 19 µM.
For the compound `N=C1c2ccccc2C(=O)c2c(NCCNCCO)ccc(O)c21`, the TGI is 29 µM.
In the case of `CC(=O)OCCCCn1nncc1Cn1ccc(=O)n(Cc2cnnn2CCCCOC(C)=O)c1=O`, the TGI is greater than 100 µM.
The same measure, in the same setting: in the case of `CCCNC(=O)Cn1c2c(c3ccccc31)CCCC2` it was greater than 100 µM; in that of `COc1ccc(/C(=N/OCCCC(=O)O)c2cccs2)cc1`, greater than 100 µM; in that of `O=c1c2ccccc2ncn1COCc1ccccc1`, greater than 100 µM.
`CO/S(=N/S(=O)(=O)c1ccccc1)c1ccccc1[N+](=O)[O-]` (stereo not drawn) gave a TGI greater than 100 µM.
For `Cc1ccc(S(=O)(=O)NC(Cc2ccccc2)C(=O)CCl)cc1` (stereo not drawn), the TGI stood at 31.2 µM.
With `COc1c(C)c(C/C=C(\C)CC/C=C(\C)CC/C=C(\C)CC/C=C(\C)CCC=C(C)C)c(OC)c(OC)c1OC`, the TGI is greater than 100 µM.
Consider `Brc1ccc2nc(-c3cccs3)nc(N3CCN(c4ccccc4)CC3)c2c1`, for which the TGI is greater than 100 µM.
On to `O=C(/C=C/c1ccc(-c2ccccc2)cc1)c1ccccc1`, for which the TGI was greater than 100 µM.
The same measure, in the same setting: in the case of `CS(=O)(=O)c1ccc(C(=O)O[C@@H]2C(=O)N3CC[C@H]4OC(O)[C@@H]2[C@H]43)cc1` (stereo partly drawn) it was greater than 100 µM; in that of `CC(=O)N(N=O)c1ccc(N(N=O)C(C)=O)cc1`, greater than 100 µM.
